Experimental findings from publication PMC4336329 (PLoS ONE, 2015) are described below.

About 14,000 (4.5%) of roughly 310,000 compounds showed an effect of 50% or more. Effects have a minus sign here. The list shows a part of the results. Where a SMILES comes first, the peptide text is derived from it. [ ]: non-standard residue; d: D form. The star is where a group is joined. ξ: configuration not given here. ξF = NC(Cc1ccccc1)C(=O)O; Cbz = O=C(OCc1ccccc1)*
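Note: peak tail current of the secondary pulse compared with the same well before compound.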

In this experiment the target is human ether-à-go-go-related gene (hERG) potassium channel (human, UniProt Q12809). In words: primary screen, population patch clamp on CHO cells stably expressing hERG.
Chain of human ether-à-go-go-related gene (hERG) potassium channel (Q12809 whole entry, looked up): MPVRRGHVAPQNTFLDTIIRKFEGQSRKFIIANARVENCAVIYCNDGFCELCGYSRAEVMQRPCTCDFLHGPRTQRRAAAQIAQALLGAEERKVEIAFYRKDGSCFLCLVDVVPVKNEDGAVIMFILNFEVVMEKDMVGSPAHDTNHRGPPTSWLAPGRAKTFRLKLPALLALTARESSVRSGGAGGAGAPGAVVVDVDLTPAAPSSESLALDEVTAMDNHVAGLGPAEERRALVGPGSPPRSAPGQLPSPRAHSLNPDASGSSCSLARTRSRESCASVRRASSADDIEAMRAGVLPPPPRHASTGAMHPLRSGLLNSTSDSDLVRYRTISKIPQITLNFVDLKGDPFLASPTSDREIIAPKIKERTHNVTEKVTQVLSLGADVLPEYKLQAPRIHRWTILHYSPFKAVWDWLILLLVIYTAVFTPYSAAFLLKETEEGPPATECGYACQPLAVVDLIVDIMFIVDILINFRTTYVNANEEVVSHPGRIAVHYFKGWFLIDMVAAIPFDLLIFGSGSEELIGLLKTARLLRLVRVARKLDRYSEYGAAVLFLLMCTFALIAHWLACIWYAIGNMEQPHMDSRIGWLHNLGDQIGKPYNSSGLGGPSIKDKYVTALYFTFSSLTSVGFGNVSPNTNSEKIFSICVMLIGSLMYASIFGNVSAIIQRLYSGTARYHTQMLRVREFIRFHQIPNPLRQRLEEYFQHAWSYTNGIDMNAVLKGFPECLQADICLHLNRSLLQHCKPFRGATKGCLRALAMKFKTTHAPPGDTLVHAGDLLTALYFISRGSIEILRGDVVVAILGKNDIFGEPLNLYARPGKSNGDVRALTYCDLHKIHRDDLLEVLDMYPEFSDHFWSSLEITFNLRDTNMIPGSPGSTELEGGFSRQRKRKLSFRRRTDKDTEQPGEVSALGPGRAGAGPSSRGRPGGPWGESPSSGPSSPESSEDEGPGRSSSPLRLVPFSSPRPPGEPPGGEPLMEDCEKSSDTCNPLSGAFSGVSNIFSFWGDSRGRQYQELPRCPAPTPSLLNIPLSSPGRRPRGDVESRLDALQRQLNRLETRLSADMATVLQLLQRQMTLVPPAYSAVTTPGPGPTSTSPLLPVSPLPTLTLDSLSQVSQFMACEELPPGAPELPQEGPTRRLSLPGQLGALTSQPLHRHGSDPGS
Regarding `O=c1c2ccccc2nc2n1CCc1c-2[nH]c2ccccc12`, the “hERG current change (%, negative = inhibition) at 10uM” value amounted to 12%. For `CCS(=O)(=O)Nc1ccc(C2=NN(C(=O)c3ccccc3)C(c3cccs3)C2)cc1` (stereo not shown), the “hERG current change (%, negative = inhibition) at 10uM” value came to 4.84%. Next, `Cc1ccsc1-c1ccnc(-n2cccc2)n1`: 11.6%. For the compound `CCCNC(=O)N[C@@H](Cc1ccccc1)C(=O)OC`, the “hERG current change (%, negative = inhibition) at 10uM” value is reported as -11.6%. Next, `CN(C)C(=S)Nc1cccc(-c2n[nH]c(=S)o2)c1`: 13%; `Cc1ccc(CCNC(=O)C2CCN(S(=O)(=O)c3cccc4nsnc34)CC2)cc1`: -1.48%; `Cc1cc(Cl)ccc1OC(C)C(=O)NN1C(=O)c2ccccc2C1=O` (stereo not shown): 20.9%.

With `COc1ccc(CNC(=O)CN(C(=O)c2csnn2)c2cccc(C(C)=O)c2)cc1`, the “hERG current change (%, negative = inhibition) at 10uM” value is given as -2.98%. To `Cc1cccc(NC(=O)c2cc([N+](=O)[O-])ccc2NC2CCCCC2)c1` belongs 10.1%; to `CC(C)[C@H](NC(=O)OCc1ccccc1)C(=O)NC(C=O)Cc1ccccc1` (stereo partly drawn) (Cbz-Val-[ξF]-aldehyde), 7.65%; to `Cc1cc(C)nc(NC(=O)C(C)N2C(=O)c3ccccc3C2=O)n1` (stereo not shown), 3.73%. Consider `CC(CN(C)C)CN1c2ccccc2CCc2ccccc21.O=C(O)/C=C\C(=O)O` (stereo not shown), for which the “hERG current change (%, negative = inhibition) at 10uM” value was -37.2%.

In the case of `O=C(NCCCn1ccnc1)c1ccc(S(=O)(=O)Nc2ccccc2)cc1`, the “hERG current change (%, negative = inhibition) at 10uM” value stood at 5.83%. As for `O=C(N/C(=C/c1ccc([N+](=O)[O-])cc1)C(=O)N1CCOCC1)c1ccco1`, the “hERG current change (%, negative = inhibition) at 10uM” value was -70.1%. For the compound `Cc1c(C#N)c(NC(=O)C(C)C)n(Cc2ccccc2)c1C`, the “hERG current change (%, negative = inhibition) at 10uM” value is listed as 5.79%. With `CCN(C(=O)Cn1c([N+](=O)[O-])cnc1C)c1ccccc1`, the “hERG current change (%, negative = inhibition) at 10uM” value turned out to be 11.7%.

In the case of `CCOC(=O)Cc1nc2ccccc2n(CC#N)c1=O`, the “hERG current change (%, negative = inhibition) at 10uM” value is reported as 9.11%. With `CCc1ccccc1NC(=O)CSc1nnc(Cn2cnc3ccccc32)o1`, the “hERG current change (%, negative = inhibition) at 10uM” value is on record as 12.9%. Next, `CCOc1ccc(NC(=O)CN2C(=O)C3CC=CCC3C2=O)cc1` (stereo not shown): -6.32%; `COc1cccc(-n2cc(C(=O)O)c3ccccc3c2=O)c1`: 8.39%. As to `CS(=O)(=O)N(Cc1ccccc1)c1ccc(C(=O)Nc2ccccc2Sc2ccccc2)cc1`, the “hERG current change (%, negative = inhibition) at 10uM” value came out at 1.8%.

With `COc1ccc(NC(=O)CCc2nnc3ccc(N4CCC(C)CC4)nn23)cc1OC`, the “hERG current change (%, negative = inhibition) at 10uM” value is given as -1.24%.

In the case of `Cc1ccc(OCc2cc(C(=O)N(C)CCc3ccccc3)no2)cc1C`, the “hERG current change (%, negative = inhibition) at 10uM” value is listed as -7.84%. To `CC(=O)N1c2ccc(S(=O)(=O)N3CCCC(C(=O)NCc4ccc(Cl)cc4)C3)cc2CC1C` (stereo not shown) belongs -2.85%; to `COc1ccc(C2=NN(C(=O)CSc3nc4ncc(Cl)cc4[nH]3)C(c3ccco3)C2)cc1` (stereo not shown), -3.38%. Next, `Cc1cc(NC(=O)CSc2nnc(Cc3cccn3C)n2CCc2ccccc2)no1`: -4.06%; `S=C1NCN(C2CCCCC2)CN1Cc1ccccc1`: 4.52%. Next, `O=C(NC1CC2CCC1C2)C1CCN(S(=O)(=O)c2ccc(-c3nn[nH]n3)cc2)CC1` (stereo not shown): 14.4%; `C#CC(CC)(CC)NC(=O)c1ccc(Br)s1`: -3.64%. Regarding `COc1cc(S(=O)(=O)N(Cc2cccs2)C2CC2)ccc1-n1cnnn1`, the “hERG current change (%, negative = inhibition) at 10uM” value was -29.2%.

For `Cc1cc(O)c(Sc2ncn[nH]2)cc1NS(=O)(=O)c1ccc(Cl)cc1`, the “hERG current change (%, negative = inhibition) at 10uM” value is on record as -2.65%. Next, `CN(C)S(=O)(=O)c1ccc2oc(SCC(N)=O)nc2c1`: 9.69%. Next, `Cn1nc(C(=O)NC2CCCc3ccccc32)ccc1=O` (stereo not shown): 18.1%; `COc1cccc(OCCn2ccnc2)c1`: -5.65%.

In the case of `Cc1ccc2nc(SCc3nnc(-c4ccccc4Br)o3)[nH]c2c1`, the “hERG current change (%, negative = inhibition) at 10uM” value is listed as -6.41%. Regarding `CSCC(=O)N1CCC(n2nccc2NC(=O)c2ccc3c(c2)OCO3)CC1`, the “hERG current change (%, negative = inhibition) at 10uM” value was -12.6%. Consider `Cc1cccc(CCNC(=O)CC2C(=O)NCCN2CC2CCCCC2)n1` (stereo not shown), for which the “hERG current change (%, negative = inhibition) at 10uM” value was 20.9%.

As to `Cc1cc(N/N=C/c2ccccc2O)c2ccccc2n1`, the “hERG current change (%, negative = inhibition) at 10uM” value is -72.5%. Next, `COCCCN(C(=O)CCOc1ccc(C(C)(C)C)cc1)c1c(N)n(Cc2ccccc2)c(=O)[nH]c1=O`: -62.2%; `COC(=O)c1ccc(COC(=O)c2ccccn2)cc1`: 7.56%; `CC(C)(C)c1ccc(C(=O)NC(=S)NCC2CCCO2)cc1` (stereo not shown): -10.2%. Regarding `Cc1ccc(NC(=O)CSc2ncccn2)cc1F`, the “hERG current change (%, negative = inhibition) at 10uM” value is on record as -26.4%.

With `O=[N+]([O-])c1cc2c(cc1CN1CCN(c3ccccc3)CC1)OCO2`, the “hERG current change (%, negative = inhibition) at 10uM” value turned out to be 9.45%.
